# Results taken from PMC4336329 (PLoS ONE, 2015).
# The whole screen tested about 310,000 compounds, of which about 2,200 (0.71%) showed an effect of 50% or more. The effect is printed as a negative number. The list shows a part of the results.
# Biological target: human ether-à-go-go-related gene (hERG) potassium channel (human, UniProt Q12809)
# Experiment: primary screen, population patch clamp on CHO cells stably expressing hERG
# Chain of human ether-à-go-go-related gene (hERG) potassium channel (Q12809 whole entry, looked up): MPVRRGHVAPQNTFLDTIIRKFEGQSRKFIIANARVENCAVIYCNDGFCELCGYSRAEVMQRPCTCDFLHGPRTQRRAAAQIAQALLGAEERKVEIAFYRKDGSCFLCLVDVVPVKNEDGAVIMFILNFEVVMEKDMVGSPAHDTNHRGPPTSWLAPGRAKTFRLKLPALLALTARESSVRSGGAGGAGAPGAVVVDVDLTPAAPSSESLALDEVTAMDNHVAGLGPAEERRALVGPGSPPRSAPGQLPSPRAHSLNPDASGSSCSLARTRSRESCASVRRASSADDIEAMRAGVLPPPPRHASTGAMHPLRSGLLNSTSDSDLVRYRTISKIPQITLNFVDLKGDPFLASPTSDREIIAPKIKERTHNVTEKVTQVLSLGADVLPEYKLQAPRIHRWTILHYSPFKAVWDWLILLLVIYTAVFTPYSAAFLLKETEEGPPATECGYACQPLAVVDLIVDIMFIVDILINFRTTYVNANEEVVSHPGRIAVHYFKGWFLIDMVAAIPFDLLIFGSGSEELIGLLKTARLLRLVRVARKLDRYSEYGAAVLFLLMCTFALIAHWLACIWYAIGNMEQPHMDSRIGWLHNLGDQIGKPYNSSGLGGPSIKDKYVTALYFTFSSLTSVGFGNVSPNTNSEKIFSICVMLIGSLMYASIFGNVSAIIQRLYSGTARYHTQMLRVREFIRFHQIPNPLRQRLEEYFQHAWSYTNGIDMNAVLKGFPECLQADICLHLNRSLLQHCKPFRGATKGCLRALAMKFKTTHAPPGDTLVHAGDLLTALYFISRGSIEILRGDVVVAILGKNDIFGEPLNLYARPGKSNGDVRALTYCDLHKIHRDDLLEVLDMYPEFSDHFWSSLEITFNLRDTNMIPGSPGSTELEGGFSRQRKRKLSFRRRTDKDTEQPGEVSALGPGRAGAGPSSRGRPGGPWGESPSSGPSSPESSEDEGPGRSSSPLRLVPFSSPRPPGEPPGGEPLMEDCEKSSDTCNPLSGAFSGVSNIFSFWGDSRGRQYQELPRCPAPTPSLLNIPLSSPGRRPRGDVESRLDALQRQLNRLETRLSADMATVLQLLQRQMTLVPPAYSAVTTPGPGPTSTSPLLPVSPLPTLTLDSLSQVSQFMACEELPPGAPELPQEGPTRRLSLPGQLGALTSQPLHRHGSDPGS
row,Compound,"hERG current change (%, negative = inhibition) at 1uM"
1,CC(C)C(=O)Nc1ccc(C(=O)Nc2nnc(C(C)C)s2)cc1,12.5%
2,CS(=O)(=O)N1CCN(C(=O)c2cc(-c3ccncc3)nc3ccc(Cl)cc23)CC1,7.7%
3,CC(=O)c1ccccc1NC(=O)COc1ccc(N(C)S(=O)(=O)c2ccc(C)c(C)c2)cc1,0.287%
4,COc1ccc(/C=N/NC(=O)CCCOc2ccc(Cl)cc2Cl)cc1[N+](=O)[O-],-1.23%
5,O=C(CCCN1C(=O)/C(=C/c2ccccc2Cl)SC1=S)NNC(=O)c1ccccc1,9.51%
6,Cc1cccc(NC(=S)NC(=O)c2ccc(-c3ccccc3)cc2)n1,30.1%
7,COCC(=O)N/N=C(\C)CC(=O)NCc1ccco1,3.28%
8,COc1cc(/C=C2/C(=N)N3C(=NC2=O)SN=C3S(=O)(=O)C(C)C)ccc1OC(=O)c1ccco1,14.2%
9,COc1ccc(-c2noc(CCC(=O)N(C)c3cccc(C)c3)n2)cc1,11.6%
10,COc1ccc(Cn2c(=O)[nH]c3cc(C(=O)N4CCN(c5ccccn5)CC4)ccc3c2=O)cc1,6.7%
11,COc1ccc(/C=N/NC(=O)Cc2csc(Nc3cccc(C(F)(F)F)c3)n2)cc1C,-3.48%
12,O=S(=O)(c1ccccc1)n1ccc(-c2cnc(-c3ccccc3)s2)n1,3.9%
13,NC(=O)c1cc(S(=O)(=O)NCc2ccc(Br)cc2)cs1,13.1%
14,Cc1ccccc1OCC(=O)NC1CCCCCCC1,0.489%
15,COc1ccc(-n2c(SCC(=O)N3CCCC(C)C3)nnc2-c2cccnc2)cc1 (stereo not drawn),-5.86%
16,O=C(O)c1cc(CN2CCOCC2)oc1-c1ccccc1,9.09%
17,O=C(CCCCCn1c(=S)[nH]c2cc3c(cc2c1=O)OCO3)N1CCN(c2ccc(F)cc2)CC1,3.85%
18,CN1CCN(CCC(=O)N/N=C/c2ccccc2F)CC1,6.81%
19,COc1ccc(C(=O)n2cc(C(C)=O)c3ccccc32)cc1,16.2%
20,COc1ccc(Cn2nnnc2C(c2cc3ccc(OC)cc3[nH]c2=O)N2CCC(C)CC2)cc1 (stereo not drawn),6.05%
21,O=C(O)c1cn(-c2ccc(F)cc2)c2cc(Cl)c(F)cc2c1=O,14.3%
22,Fc1ccc(C2NCCn3cccc32)cc1.O=C(O)/C=C/C(=O)O (stereo not drawn),6.58%
23,CCOc1ccc(N(C(C)C(=O)N/N=C(\C)c2cccc(NC(=O)c3ccccc3)c2)S(C)(=O)=O)cc1 (stereo not drawn),-4.78%
24,COc1ccc(CCN(C)C(=O)CCNC(=O)c2ccc(Br)cc2)cc1OC,-7.28%
25,Cc1cccc(C)c1OCc1cc(C(=O)N2CCN(c3ccccc3)CC2C)no1 (stereo not drawn),8.33%
26,O=C(/C=C/c1ccco1)Nc1cccc(NC(=O)/C=C/c2ccco2)n1,4.87%
27,O=C(O)CCn1nnc(-c2ccccc2)n1,10.7%

row,Compound,"hERG current change (%, negative = inhibition) at 1uM"
1,CCCCNc1ccc(C(=O)Nc2cccc(C)n2)cc1[N+](=O)[O-],2.75%
2,CNC(=S)N(Cc1cccs1)Cc1cc2ccc(OC)cc2[nH]c1=O,14.9%
3,CC(=O)N1Cc2ccccc2C(C)CC12CCCC2 (stereo not drawn),10.5%
4,CCn1c(CNC(=O)C2CCCCC2)cc2ccccc21,21.4%
5,CCCCCc1nc2ccccc2c(=O)n1-c1ccc(Cl)cc1[N+](=O)[O-],-5.99%
6,N#Cc1ccc(C23CC4(C2)[C@H](CN(Cc2ccc(-c5ccccc5)cc2)[C@@H]4c2ccccc2)C3c2ccc(Cl)nc2)cc1 (stereo partly drawn),3.17%
7,Cn1c(SCc2c(F)cccc2Cl)nc2ccccc2c1=O,13.2%
8,O=C(CN1C(=O)c2ccccc2S1(=O)=O)NCc1cccs1,8.98%
9,O=C(NCCCCCCNC(=O)NCc1ccco1)NCc1ccco1,6.09%
10,CC(C)(C)c1ccc(S(=O)(=O)N2CCC(N3CCCCC3)CC2)cc1,7.46%
11,Cc1cc(C)n(S(=O)(=O)c2ccc(Cl)cc2)n1,13.7%
12,COc1ccc(N2CCN(S(=O)(=O)c3cc(C)ccc3OC)CC2)cc1,11.6%
13,CCN1CCN(Cc2ccc(NC(=O)c3ccc(C)c(NC(=O)C[C@@H]4NC(=O)[C@H](Cc5ccccc5)NC4=O)c3)cc2C(F)(F)F)CC1,14.9%
14,CCC1Oc2ccccc2N(CC(=O)NC2CCCCC2)C1=O (stereo not drawn),18.3%
15,CC(NC(=O)c1ccccc1F)c1nnc(SCC(=O)Nc2nccs2)n1C (stereo not drawn),12.2%
16,CCCN1CC(O)=C(C#N)C1=O,7.34%
17,Cc1ccc(NC2OC(C(O)CO)C(O)C2O)cc1[N+](=O)[O-] (stereo not drawn),3.18%
18,O=C1CCCC2=C1C(c1ccco1)Nc1ccc3ccccc3c12 (stereo not drawn),-10.1%
19,COc1cc(NC(=S)Nc2ccc(OC(F)F)cc2)cc(OC)c1,3.33%
20,Cc1cccc(NC(=O)C2CCN(S(=O)(=O)c3cccc4cccnc34)CC2)n1,7.96%
21,Cn1c(=O)n(CC(=O)N2CCC3(CC2)OCCO3)c(=O)c2ccccc21,2.78%
22,Cc1ccc(C)c(S(=O)(=O)NC2CCS(=O)(=O)C2)c1 (stereo not drawn),5.88%
23,O=C(/C=C\Nc1ccc2c(c1)OCO2)c1ccccn1,11.9%
24,COC(=O)c1ccc(NC(=O)C(=O)c2cn(CC(=O)N3CCOCC3)c3ccccc23)cc1,1.33%
25,FC(F)(F)c1nnc(-c2ccccc2)nc1Oc1ccc(Cl)cc1Cl,12.7%
26,COc1ccc(/C=N/N2CCOCC2)cc1OCc1ccccc1,5.61%
27,CCN1CCN(S(=O)(=O)c2ccc(S(=O)(=O)NCC3CCCO3)cc2)CC1 (stereo not drawn),16.4%
